First the molecules themselves.
B1: TEV protease; numbered along this chain (parent)
chain: MGESLFKGPRDYNPISSSICHLTNESDGHTTSLYGIGFGPFIITNKHLFRRNNGTLVVQSLHGVFKVKDTTTLQQHLVDGRDMIIIRMPKDFPPFPQKLKFREPQREERICLVTTNFQTKSMSSMVSDTSCTFPSGDGIFWKHWIQTKDGQCGSPLVSTRDGFIVGIHSASNFTNTNNYFTSVPKNFMELLTNQEAQQWVSGWRLNADSVLWGGHKVFMVKPEEPFQPVKEATQL

The list shows a part of the results. The full chains were built here from the parent and the listed change. Inactive controls read about 0.05.
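Also: Bxb1 expression induced with 0.2% (w/v) L-rhamnose at OD600 near 0.5, cultures sampled hourly, flipped fraction per protease–substrate barcode pair counted by paired-end Illumina sequencing.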

Variants of B1 are the subject of this experiment. In words: raw area under fraction-flipped curve 0-4 h after induction (AUC4h, not background-subtracted), DNA-recorder readout of cleavage of the substrate (dimensionless); higher = more cleavage of the substrate by the protease variant. Particulars: temperature: 34 °C; time window: 0-4 h after rhamnose induction. The method, then: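 In vivo DNA recorder in E. coli TOP10(DE3) ΔrhaA at 34 °C. Each TEVp single-site mutant (parent TEVp 0) is paired with a single-site variant of the 7-mer TEVs (canonical ENLYFQ|S). The substrate sits between flexible linkers in a Bxb1-sfGFP-TEVs-SsrA fusion, so cleavage stabilises Bxb1 and speeds flipping of a recombination array, read by NGS. The value is the raw area under the fraction-flipped curve over 0-4 h after rhamnose induction (AUC4h), with ≥20 reads per time point. It is not background-subtracted; inactive controls average about 0.047.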
Regarding MGESLFKGPRDYNPISSSICHLTNESDGHTTSLYGIGFGPFIITNKHLFRRNNGTLVVQSLHGVFKVKDTTTLQQHLVDGRDMIIIRMPKDFPPFPQKLKFREPQREERICLVTTNFQTKSMSSMVSDTSCTFPSGDGIFWKHWIQTKDGQCGSPLVSTRDGFIVGIHSASNFHNTNNYFTSVPKNFMELLTNQEAQQWVSGWRLNADSVLWGGHKVFMVKPEEPFQPVKEATQL [T174H], the “area with substrate ENDYFQS” value was found to be 0.0648, the “area with substrate ENEYFQS” value is 0.0553, the “area with substrate ENIYFQS” value stood at 0.0871 and the “area with substrate ENMYFQS” value is 0.0468. For the same variant, the “area with substrate ENRYFQS” value stood at 0.0563, the “area with substrate ENTYFQS” value came out at 0.0663 and the “area with substrate ENVYFQS” value was found to be 0.0646.
Take MGESLFKGPRDYNPISSSICHLTNESDGHTTSLYGIGFGPFIITNKHLFRRNNGTLVVQSLHGVFKVKDTTTLQQHLVDGRDMIIIRMPKDFPPFPQKLKFREPQREERICLVTTNFQTKSMSSMVSDTSCTFPSGDGIFWKHWIQTKDGQCGSPLVSFRDGFIVGIHSASNFTNTNNYFTSVPKNFMELLTNQEAQQWVSGWRLNADSVLWGGHKVFMVKPEEPFQPVKEATQL [T159F]: the “area with substrate ENDYFQS” value stood at 0.093, the “area with substrate ENFYFQS” value came to 0.0592, the “area with substrate ENQYFQS” value is 0.0495 and the “area with substrate ENSYFQS” value was determined as 0.0779. Besides, the “area with substrate ENVYFQS” value worked out at 0.0651 and the “area with substrate ENYYFQS” value was determined as 0.0614.
MGESLFKGPRDYNPISSSICHLTNESDGHTTSLYGIGFGPFIITNKHLFRRNNGTLVVQSLHGVFKVKDTTTLQQHLVDGRDMIIIRMPKDFPPFPQKLKFREPQREERICLVTTNFQTKSMSSMVSDESCTFPSGDGIFWKHWIQTKDGQCGSPLVSTRDGFIVGIHSASNFTNTNNYFTSVPKNFMELLTNQEAQQWVSGWRLNADSVLWGGHKVFMVKPEEPFQPVKEATQL [T129E]: the “area with substrate ENDYFQS” value stood at 0.0667, the “area with substrate ENGYFQS” value is 0.0702, the “area with substrate ENHYFQS” value was determined as 0.0587 and the “area with substrate ENKYFQS” value worked out at 0.0612. Also, the “area with substrate ENNYFQS” value worked out at 0.049, the “area with substrate ENPYFQS” value was 0.079, the “area with substrate ENRYFQS” value stood at 0.0675 and the “area with substrate ENSYFQS” value turned out to be 0.0529. Besides, the “area with substrate ENTYFQS” value was determined as 0.0803 and the “area with substrate ENWYFQS” value turned out to be 0.0681.
Take MGESLFKGPRDYNPISSSICHLTNESDGHTTSLYGIGFGPFIITNKHLFRRNNGTLVVQSLHGVFKVKDTTTLQQHLVDGRDMIIIRMPKDFPPFPQKLKFREPQREERICLVDTNFQTKSMSSMVSDTSCTFPSGDGIFWKHWIQTKDGQCGSPLVSTRDGFIVGIHSASNFTNTNNYFTSVPKNFMELLTNQEAQQWVSGWRLNADSVLWGGHKVFMVKPEEPFQPVKEATQL [T114D]: the “area with substrate ENDYFQS” value is 0.0485, the “area with substrate ENEYFQS” value was 0.0584, the “area with substrate ENFYFQS” value was 0.0462 and the “area with substrate ENHYFQS” value came out at 0.0606. Moreover, the “area with substrate ENIYFQS” value came out at 0.134, the “area with substrate ENKYFQS” value amounted to 0.0552, the “area with substrate ENMYFQS” value was found to be 0.08 and the “area with substrate ENNYFQS” value turned out to be 0.0454. Besides, the “area with substrate ENRYFQS” value came to 0.052 and the “area with substrate ENSYFQS” value worked out at 0.0533.
For the variant MGESLFKGPRDYNPISSSICHLTNESDGHTTSLYGIGFGPFIITNKHLFRRNNGTLVVQSLHGVFKVKDTTTLQQHLVDGRDMIIIRMPKDFPPFPQKLKFREPQREERICLVTTNFQTKSMSSMVSDTSCTFPSGDGIFWKHWIQTKDGQCGSPLVSTRDGTIVGIHSASNFTNTNNYFTSVPKNFMELLTNQEAQQWVSGWRLNADSVLWGGHKVFMVKPEEPFQPVKEATQL [F163T], the “area with substrate ENDYFQS” value was 0.0549, the “area with substrate ENFYFQS” value is 0.0498, the “area with substrate ENHYFQS” value was 0.0567 and the “area with substrate ENKYFQS” value is 0.0604. For the same variant, the “area with substrate ENSYFQS” value stood at 0.06 and the “area with substrate ENVYFQS” value was determined as 0.0879.
Take MGESLFKGPRDYNPISSSICHLTNESDGHTTSLYGIGFGPFIITNKHLFRRNNGTLVVQSLHGVFKVKDTTTLQQHLVDGRDMQIIRMPKDFPPFPQKLKFREPQREERICLVTTNFQTKSMSSMVSDTSCTFPSGDGIFWKHWIQTKDGQCGSPLVSTRDGFIVGIHSASNFTNTNNYFTSVPKNFMELLTNQEAQQWVSGWRLNADSVLWGGHKVFMVKPEEPFQPVKEATQL [I84Q]: the “area with substrate ENDYFQS” value was found to be 0.0576, the “area with substrate ENEYFQS” value stood at 0.051, the “area with substrate ENHYFQS” value worked out at 0.056 and the “area with substrate ENKYFQS” value worked out at 0.057. In addition, the “area with substrate ENQYFQS” value stood at 0.0656, the “area with substrate ENSYFQS” value came to 0.0639, the “area with substrate ENVYFQS” value was determined as 0.0818 and the “area with substrate ENWYFQS” value turned out to be 0.0041. For the same variant, the “area with substrate ENYYFQS” value was determined as 0.0564.
MGESLFKGPRDYNPISSSICHLTNESDGHTTSLYGIGFGPFIITNKHLFRRNNGTLVVQSLHGVFKVKDTTTLQQHLVDGRDMIIIRMPKDFPPFPQKLKFREPQREERICLVTTNFQTKSMSSMVSDTSCTFPSGDGIFWQHWIQTKDGQCGSPLVSTRDGFIVGIHSASNFTNTNNYFTSVPKNFMELLTNQEAQQWVSGWRLNADSVLWGGHKVFMVKPEEPFQPVKEATQL [K142Q]: the “area with substrate ENDYFQS” value amounted to 0.0644, the “area with substrate ENEYFQS” value was 0.0583, the “area with substrate ENFYFQS” value amounted to 0.0688 and the “area with substrate ENHYFQS” value worked out at 0.0691. Besides, the “area with substrate ENKYFQS” value is 0.0685, the “area with substrate ENQYFQS” value was found to be 0.0674, the “area with substrate ENRYFQS” value was determined as 0.0585 and the “area with substrate ENSYFQS” value is 0.0598. For the same variant, the “area with substrate ENWYFQS” value amounted to 0.0727 and the “area with substrate ENYYFQS” value is 0.0607.
Turning to MGESLFKGPRDYNPISSSICHLTNESDGHTTSLYGIGFGPFIITNKHLFRRNNGTLVVQSLHGVFKVKDTTTLQQHLVDGRDMIIIRMPKDFPPFPQKLKFREPQREERICLVTTNFQTKSMSSMVSDTSCTFPSGDGIFWKHWIQDKDGQCGSPLVSTRDGFIVGIHSASNFTNTNNYFTSVPKNFMELLTNQEAQQWVSGWRLNADSVLWGGHKVFMVKPEEPFQPVKEATQL [T147D], the “area with substrate ENDYFQS” value was 0.0794, the “area with substrate ENEYFQS” value worked out at 0.0607, the “area with substrate ENIYFQS” value came out at 0.0859 and the “area with substrate ENNYFQS” value was 0.0373.
With MGESLFKGPRDYNPISSSICHLTNESDGHTTSLYGIGFGPFIITNKHLFRRNNGTLVVQSLHGVFKVKDTTTLQQPLVDGRDMIIIRMPKDFPPFPQKLKFREPQREERICLVTTNFQTKSMSSMVSDTSCTFPSGDGIFWKHWIQTKDGQCGSPLVSTRDGFIVGIHSASNFTNTNNYFTSVPKNFMELLTNQEAQQWVSGWRLNADSVLWGGHKVFMVKPEEPFQPVKEATQL [H76P], the “area with substrate ENDYFQS” value was 0.0666, the “area with substrate ENEYFQS” value worked out at 0.0749, the “area with substrate ENIYFQS” value came to 0.0598 and the “area with substrate ENMYFQS” value is 0.0571. Besides, the “area with substrate ENNYFQS” value came out at 0.057, the “area with substrate ENQYFQS” value was 0.0611, the “area with substrate ENRYFQS” value is 0.0465 and the “area with substrate ENSYFQS” value came to 0.0641. Besides, the “area with substrate ENTYFQS” value stood at 0.0358, the “area with substrate ENVYFQS” value was determined as 0.0495 and the “area with substrate ENWYFQS” value is 0.0568.
Consider MGESLFKGPRDYNPISSSICHLTNESDGHTTSLYGIGFGPFIITNKHLFRRNNGTLVVQSLHGVFKVKDTTTLQQHLVDGRDMIIIRMPKDFPPFPQKLKFREPQREERICLVTTNFQTKSMSSMVSDTSCTFPSGDGIFWKHWIQTKDGQCWSPLVSTRDGFIVGIHSASNFTNTNNYFTSVPKNFMELLTNQEAQQWVSGWRLNADSVLWGGHKVFMVKPEEPFQPVKEATQL [G153W], for which the “area with substrate ENDYFQS” value turned out to be 0.0572, the “area with substrate ENFYFQS” value came to 0.0468, the “area with substrate ENRYFQS” value is 0.0857 and the “area with substrate ENSYFQS” value was 0.0586. The “area with substrate ENTYFQS” value is 0.0621.

Values taken from the supplement of paper PMC12217912.
